Results on 45 compounds are retold here after PMC4336329 (PLoS ONE, 2015).

The campaign covered roughly 310,000 compounds. About 14,000 (4.5%) showed an effect of 50% or more. Effects have a minus sign here. The list shows a part of the results.
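Also: peak tail current of the secondary pulse compared with the same well before compound.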

For the test, the target named is human ether-à-go-go-related gene (hERG) potassium channel (human, UniProt Q12809). Put plainly: primary screen, population patch clamp on CHO cells stably expressing hERG.
Sequence of human ether-à-go-go-related gene (hERG) potassium channel (Q12809 whole entry, looked up): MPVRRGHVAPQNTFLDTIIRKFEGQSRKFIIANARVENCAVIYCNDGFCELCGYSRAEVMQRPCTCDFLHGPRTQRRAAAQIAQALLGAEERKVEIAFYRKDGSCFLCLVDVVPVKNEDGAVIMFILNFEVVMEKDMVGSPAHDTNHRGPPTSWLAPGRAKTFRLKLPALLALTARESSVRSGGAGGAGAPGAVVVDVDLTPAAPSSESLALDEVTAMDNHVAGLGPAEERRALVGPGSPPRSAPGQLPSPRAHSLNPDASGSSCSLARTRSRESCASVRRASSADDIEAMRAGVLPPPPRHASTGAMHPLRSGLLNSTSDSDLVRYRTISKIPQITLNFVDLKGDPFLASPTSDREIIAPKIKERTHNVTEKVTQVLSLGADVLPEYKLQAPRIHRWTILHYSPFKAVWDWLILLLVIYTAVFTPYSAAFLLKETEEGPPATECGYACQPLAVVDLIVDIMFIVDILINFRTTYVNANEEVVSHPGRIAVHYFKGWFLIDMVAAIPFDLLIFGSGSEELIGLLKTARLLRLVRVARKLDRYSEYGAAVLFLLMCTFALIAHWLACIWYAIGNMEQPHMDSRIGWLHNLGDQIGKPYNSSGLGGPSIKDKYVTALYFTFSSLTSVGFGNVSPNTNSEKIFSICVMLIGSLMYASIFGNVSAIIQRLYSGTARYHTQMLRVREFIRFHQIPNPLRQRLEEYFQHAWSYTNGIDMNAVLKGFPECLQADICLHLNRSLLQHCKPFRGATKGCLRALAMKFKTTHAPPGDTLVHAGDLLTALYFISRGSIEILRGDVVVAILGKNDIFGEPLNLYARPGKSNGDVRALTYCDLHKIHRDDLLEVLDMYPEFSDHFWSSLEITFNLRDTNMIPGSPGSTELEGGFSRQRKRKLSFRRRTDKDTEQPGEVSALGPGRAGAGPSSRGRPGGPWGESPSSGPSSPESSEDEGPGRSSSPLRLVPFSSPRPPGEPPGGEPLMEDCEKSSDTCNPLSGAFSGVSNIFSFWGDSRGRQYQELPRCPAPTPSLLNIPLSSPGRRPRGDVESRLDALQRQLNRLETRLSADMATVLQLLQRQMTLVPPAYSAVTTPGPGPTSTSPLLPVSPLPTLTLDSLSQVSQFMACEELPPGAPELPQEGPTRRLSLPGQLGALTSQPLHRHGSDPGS
Take `Cc1cccc(NC(=O)c2cc(-c3cc(Cl)ccc3O)n[nH]2)c1`: the “hERG current change (%, negative = inhibition) at 10uM” value came out at 18.2%.
With `CCC(C)NC(=O)CCCCCn1c(=O)[nH]c2cc(OC)c(OC)cc2c1=O` (stereo not drawn) the figure was -9.93%; with `CCCCC(=O)NC1(C(F)(F)F)C(=O)N(Cc2ccco2)C(C)=C1C(=O)OC` (stereo not drawn), 8.89%; with `O=C1C2CC=CCC2C(=O)N1n1cnnc1` (stereo not drawn), 17.4%.
For the compound `COc1ccc(CCNC(=O)Nc2cccc([N+](=O)[O-])c2)cc1`, the “hERG current change (%, negative = inhibition) at 10uM” value is 4.51%.
The value for `O=C(O)c1nn(Cc2ccc(Cl)cc2Cl)c2ccccc12` was 14.2%.
On to `Clc1ccc(C2=NOC(c3nnc(-c4ccccc4)o3)C2)cc1` (stereo not drawn), for which the “hERG current change (%, negative = inhibition) at 10uM” value is reported as 15.5%.
As to `O=C(O)CCN1C(=O)c2ccc(NC(=O)c3ccco3)cc2C1=O`, the “hERG current change (%, negative = inhibition) at 10uM” value was found to be 18%.
Consider `Cc1ccc(S(=O)(=O)Nc2ccc(N3CCOCC3)cc2)cc1[N+](=O)[O-]`, for which the “hERG current change (%, negative = inhibition) at 10uM” value was -23.9%.
In the case of `O=C(Nc1ccccn1)c1ccc2c(c1)S(=O)(=O)c1ccccc1C2=O`, the “hERG current change (%, negative = inhibition) at 10uM” value turned out to be 6.46%.
For the compound `Cc1ccc(/C=C2\S/C(=N/S(=O)(=O)c3cccs3)NC2=O)cc1`, the “hERG current change (%, negative = inhibition) at 10uM” value is reported as -1.37%.
Consider `CC1=CCC2C(=O)N(c3ccc(OC(=O)c4ccco4)cc3)C(=O)C2C1` (stereo not drawn), for which the “hERG current change (%, negative = inhibition) at 10uM” value turned out to be 12%.
With `COc1cc2cc(CCCOC(=O)CCC(=O)O)oc(=O)c2cc1OC`, the “hERG current change (%, negative = inhibition) at 10uM” value amounted to 14.4%.
With `COCCc1ncc(CN2CCCCC2C(=O)Nc2ccc(Oc3ccccc3)nc2)cn1` (stereo not drawn) the figure was -8.69%; with `S=c1[nH]c2cc3c(cc2[nH]1)OCCO3`, 16.9%; with `COc1ccc(CCNC(=O)CSc2nc(N)cc(=O)[nH]2)cc1OC`, 29.6%.
Consider `CCN(CC)S(=O)(=O)c1ccc(N2CCOCC2)c(NC(=O)COc2ccccc2)c1`, for which the “hERG current change (%, negative = inhibition) at 10uM” value is given as -11.1%.
As for `C[C@H](Nc1ncnc2sc3c(c12)CCC3)C(=O)O`, the “hERG current change (%, negative = inhibition) at 10uM” value came to 16.1%.
`CCN(CC)C(=O)n1c(Cc2ccccc2)nc2ccccc21`: the “hERG current change (%, negative = inhibition) at 10uM” value is -1.1%.
`COC(=O)C1=C(C)NC(=O)/C1=C\c1cc(C)n(-c2c(C)cccc2C)c1C`: the “hERG current change (%, negative = inhibition) at 10uM” value was -22.9%.
On to `C#CCNC(=O)C1=C[C@H](c2ccc3c(c2)OCO3)C[C@H](OCCCCO)O1`, for which the “hERG current change (%, negative = inhibition) at 10uM” value is -0.756%.
In the case of `CC(NC(=O)C(=O)NCC1CCCO1)c1ccccc1` (stereo not drawn), the “hERG current change (%, negative = inhibition) at 10uM” value stood at 13.7%.
Take `COC(=O)C(CC(C)C)NC(=O)/C=C/c1ccc(Cl)cc1` (stereo not drawn): the “hERG current change (%, negative = inhibition) at 10uM” value is -5.29%.
The value for `CN1CCN(c2ccc(Cl)cc2N)CC1` was -5.58%.
In the case of `COc1ccc(CN2CCCC(C(=O)c3ccc4c(c3)OCO4)C2)c(F)c1` (stereo not drawn), the “hERG current change (%, negative = inhibition) at 10uM” value is on record as -64.2%.
Consider `COc1ccc(OC)c(-n2nnnc2SCC(=O)Nc2ccccc2OC)c1`, for which the “hERG current change (%, negative = inhibition) at 10uM” value was 7.8%.
As to `O=c1c2ccccc2nc(CNCc2ccco2)n1-c1ccc(F)cc1`, the “hERG current change (%, negative = inhibition) at 10uM” value is reported as -17.5%.
In the case of `CCOc1ccc(NC(=O)CN(C)C(=O)c2ccc(C3SCCS3)cc2)cc1OCC`, the “hERG current change (%, negative = inhibition) at 10uM” value was -0.427%.
With `N=c1c(C(=O)NC2CCCCC2)cc2c(=O)n3ccccc3nc2n1CC1CCCO1` (stereo not drawn), the “hERG current change (%, negative = inhibition) at 10uM” value is on record as -74.9%.
The value for `COc1ccc(CNC(=O)CSc2nnc3c(n2)[nH]c2ccc(F)cc23)cc1` was 7.99%; that for `CCOc1ccc(-n2nnnc2SCC(=O)Nc2ccc(NC(C)=O)cc2)cc1` was 22.8%.
With `CCN(CC)C(=O)CSc1nc2nc(C)cc(C)c2c(=O)[nH]1` the figure was 15.4%.
Regarding `CCCN1C2=C(C(=O)CCC2)C(c2ccc(O)c(Br)c2)C2=C1CCCC2=O`, the “hERG current change (%, negative = inhibition) at 10uM” value was -18.1%.
Consider `O=C(NCCN1CCNC1=O)C1CCC(=O)N(Cc2cccc(C(F)(F)F)c2)C1` (stereo not drawn), for which the “hERG current change (%, negative = inhibition) at 10uM” value is reported as 12.9%.
As to `CCOC(=O)Cc1csc(NC(=O)CSc2nnc3ccccn23)n1`, the “hERG current change (%, negative = inhibition) at 10uM” value is on record as 12.2%.
The value for `Cc1ccc(N(CN2CCCC2=O)C(=O)c2ccccc2)cc1` was 22.4%.
As for `O=C(CC(c1ccccc1)c1cc(Cl)ccc1O)N1CCOCC1` (stereo not drawn), the “hERG current change (%, negative = inhibition) at 10uM” value is reported as -15.1%.
In the case of `CC(C)(C)c1nn(-c2ccccc2)c2[nH]c(=O)c(C=O)cc12`, the “hERG current change (%, negative = inhibition) at 10uM” value amounted to 8.56%.
With `COc1ccc(OC)c(CCNC(=O)CCc2nnc3ccc(N4CCOCC4)nn23)c1` the figure was 16.1%; with `CCn1c(CC(=O)Nc2ccccc2)nnc1SCC(=O)NC1=NCCS1`, 12.9%; with `Cc1ccccc1C1CCCN(Cc2nc(CC3CC3)no2)C1` (stereo not drawn), -12.7%.
Take `COC(=O)c1ccc(NS(=O)(=O)c2ccc(-c3cc(C)no3)s2)cc1`: the “hERG current change (%, negative = inhibition) at 10uM” value was 10.5%.
For the compound `O=C(Nc1ccc2c(c1)C(=O)OC2)c1ccc(Cl)cc1`, the “hERG current change (%, negative = inhibition) at 10uM” value is given as 20.7%.
With `CCCCC(=O)Nc1ccccc1N1CCN(c2ccccc2)CC1`, the “hERG current change (%, negative = inhibition) at 10uM” value worked out at 3.1%.
With `Cc1ccc(CNC(=O)CNS(=O)(=O)c2ccc(Br)s2)cc1` the figure was -0.279%.
